{"source": "ChEMBL document CHEMBL5308541", "about": "“MAIP: An Open-Source Tool to Enrich High-Throughput Screening Output and Identify Novel, Druglike Molecules with Antimalarial Activity” (ACS Med Chem Lett, 2023)", "note": "About 540 (0.36%) of roughly 150,000 compounds showed an effect of 50% or more. Some of the results follow."}
{"tested_on": "Plasmodium falciparum", "experiment": "Primary screen in NF54 nanoGlo assay, in single point, at 2uM, 72h; a lower Z score goes with more inhibition", "type": "functional, Erythrocyte", "details": "timepoint 72 hour", "units": {"% Inhibition": "%"}}
{"compound": "CCOc1ccc(O[C@@H](C)c2nnc(-c3c(C)noc3C3CC3)o2)cc1", "% Inhibition": -8, "Z score": 1.15}
{"compound": "Fc1cc2ncc(N3CCC4(CCNC4)CC3)nc2cc1F", "% Inhibition": -9, "Z score": 1.33}
{"compound": "c1ccc2[nH]c(N3CCC(c4c[nH]c5ccccc45)CC3)nc2c1", "% Inhibition": 9, "Z score": -1.85}
{"compound": "Cn1ncc(C(F)(F)F)c1CN[C@H]1CCCc2c1[nH]c1ccc(Cl)cc21", "% Inhibition": -15, "Z score": 2.6}
{"compound": "Cn1cc(CNc2nc3cc(F)ccc3n2C)c(-c2cccnc2)n1", "% Inhibition": -4, "Z score": 0.78}
{"compound": "CN(C)CCN1CCN(c2ncnc3[nH]ccc23)CCC1=O", "% Inhibition": -6, "Z score": 1.08}
{"compound": "Fc1ccc2[nH]c(-c3cc4n(n3)CCCN(C/C=C/c3ccco3)C4)nc2c1", "% Inhibition": 3, "Z score": -0.51}
{"compound": "Cc1cc(F)cc(NC(=O)c2cc3n(n2)CCN(C)S3(=O)=O)c1", "% Inhibition": -2, "Z score": 0.47}
{"compound": "CN(Cc1ccoc1)Cc1cccc(-c2nc(-c3ccc(O)cc3)cc(=O)[nH]2)c1", "% Inhibition": -6, "Z score": 0.97}
{"compound": "CCOC(=O)C[C@H](OC(=O)CCN1CCCC1=O)C1CC1", "% Inhibition": -13, "Z score": 2.76}
{"compound": "CC(=O)c1c(C)nn([C@@H](C)CC(=O)N2CCC(c3ncc[nH]3)CC2)c1C", "% Inhibition": 1, "Z score": -0.2}
{"compound": "CC(C)C(=O)N1CCC[C@H](Nc2cc(N3CCC(O)CC3)ncn2)C1", "% Inhibition": 9, "Z score": -1.97}
{"compound": "Cc1nc2cc(NC(=O)c3cc(-c4cccnc4)[nH]n3)ccc2n1CCCN(C)C", "% Inhibition": 6, "Z score": -1.02}
{"compound": "O=C(C1CCN(Cc2ccc3cn[nH]c3c2)CC1)N(Cc1ccccc1)C1CC1", "% Inhibition": -1, "Z score": 0.21}
{"compound": "Cc1ccc(NCCCNCc2ccc(CO)o2)nc1", "% Inhibition": -10, "Z score": 2.19}
{"compound": "O=C([C@@H]1CCCc2c1[nH]c1ccccc21)N1CCC(O)(CN2CCCC2)CC1", "% Inhibition": -5, "Z score": 0.81}
{"compound": "OCCNc1cc(NCCN2CCC[C@H](CO)C2)ncn1", "% Inhibition": -11, "Z score": 1.94}
{"compound": "Cn1c(=O)n(C)c2cc(CNc3nc(N)nc4c3CCNCC4)ccc21", "% Inhibition": -4, "Z score": 0.71}
{"compound": "c1ccc(-c2cc(Cn3ccc(-c4cccc(-c5cncnc5)c4)n3)on2)nc1", "% Inhibition": -19, "Z score": 3.33}
{"compound": "Cc1cccc2c(-c3ncnc4[nH]ccc34)c[nH]c12", "% Inhibition": 1, "Z score": -0.19}
{"compound": "CN1CCC(N(Cc2ccccc2)C(=O)Cc2c[nH]c3ncccc23)CC1", "% Inhibition": -1, "Z score": 0.19}
{"compound": "CC[C@@H](CNc1nccc(C)n1)N1CCCCC1", "% Inhibition": -6, "Z score": 1.01}
{"compound": "CN(C(=O)N1CCS(=O)(=O)CC1)C1(C(N)=O)CCCC1", "% Inhibition": 7, "Z score": -1.59}
